No constants are given. Whether binding was seen depends on the method and setting. In cells and extracts the contact can be indirect. Some binding calls cover weakened binding; strength is not graded here.

Amino acid sequences for entries named in this document (tags omitted).
UniProt P16615: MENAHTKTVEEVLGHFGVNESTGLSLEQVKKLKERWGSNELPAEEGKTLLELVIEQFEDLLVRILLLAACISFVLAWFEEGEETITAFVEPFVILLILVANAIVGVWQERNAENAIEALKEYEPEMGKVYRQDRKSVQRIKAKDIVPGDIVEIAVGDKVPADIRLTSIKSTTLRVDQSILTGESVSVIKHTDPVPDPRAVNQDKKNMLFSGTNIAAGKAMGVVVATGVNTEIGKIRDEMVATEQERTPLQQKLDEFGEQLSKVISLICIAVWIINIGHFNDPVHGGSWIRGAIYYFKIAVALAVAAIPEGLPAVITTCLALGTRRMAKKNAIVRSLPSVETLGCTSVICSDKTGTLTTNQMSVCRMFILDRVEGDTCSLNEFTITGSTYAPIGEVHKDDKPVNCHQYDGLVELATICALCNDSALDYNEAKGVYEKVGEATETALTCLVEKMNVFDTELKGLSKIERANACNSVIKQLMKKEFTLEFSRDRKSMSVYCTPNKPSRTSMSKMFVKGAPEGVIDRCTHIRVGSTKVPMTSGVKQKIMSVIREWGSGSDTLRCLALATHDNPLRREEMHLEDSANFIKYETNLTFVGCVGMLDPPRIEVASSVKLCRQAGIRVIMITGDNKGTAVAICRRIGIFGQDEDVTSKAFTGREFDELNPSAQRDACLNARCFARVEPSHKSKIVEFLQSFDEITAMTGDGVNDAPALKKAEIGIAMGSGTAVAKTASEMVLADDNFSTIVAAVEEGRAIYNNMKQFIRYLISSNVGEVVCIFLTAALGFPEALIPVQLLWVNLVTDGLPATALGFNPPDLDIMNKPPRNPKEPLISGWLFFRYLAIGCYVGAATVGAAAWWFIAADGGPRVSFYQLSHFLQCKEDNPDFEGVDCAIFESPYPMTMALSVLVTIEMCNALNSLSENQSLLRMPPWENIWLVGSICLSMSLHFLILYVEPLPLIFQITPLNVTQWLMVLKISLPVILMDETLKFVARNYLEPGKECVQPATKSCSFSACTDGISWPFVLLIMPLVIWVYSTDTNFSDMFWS

Consider one molecule from paper PMC5702604.

For this test, the target named is Flag-tagged SERCA2 (SERCA2b) (UniProt P16615). The experiment in a line: pull-down; competition: synthetic peptide added at 200 μM to HEK293T lysates holding Piezo1-GST and Flag-SERCA2, overnight; read as Flag-SERCA2 pulled down by Piezo1-GST; only the binder purified.

B1: linker-peptide (amino acids 2171–2185 of mPiezo1), myristoylated (peptide)
peptide: TEKKYPQPKGQKKKK
modifications: myristoylated at its N-terminus
For the molecule B1, the binding result is reported as “binds”.
